Data from PubChem BioAssay AID485294 (National Center for Advancing Translational Sciences (NCATS), 2010).
Among all 370,000 compounds or so, about 150 (0.041%) were called active. This list was built around the results that the source calls inconclusive (neither active nor inactive); the mix of calls is not that of the screen. Calls come from the whole dose curve; as a rule, active = well fitted inhibition curve with a large enough effect; inconclusive = small, poorly fitted or top-dose-only effect; inactive = flat fitted curve, though single readings scatter. Potencies of inconclusive entries are left out as doubtful fits.

Each compound was assayed against Beta-lactamase (Escherichia coli (strain K12)) (UniProt P00811) (assay: qHTS Inhibitors of AmpC Beta-Lactamase (assay with detergent)). Conditions: AmpC hydrolysis of nitrocefin, absorbance 480 nm, 0.01% Triton; activity change, negative = inhibition: at 114 µM (top of the series).
How it was run: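 20 mM phosphate pH 7.0 + 0.01% (detergent screen) or 0.0001% Triton X-100; 5.3 nM AmpC reagent; cpd preinc 15 min RT; nitrocefin (800 uM stock) to start; A480 q20 s × 4 min; Activity was normalised to no-enzyme and no-compound control wells.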
Note: nearly all actives have a fitted effect of over 25% in size.
Potency is the fitted concentration of half-maximal effect; tags give direction and shape of the fitted curve.
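Throughout, for activity change, negative = inhibition: 0% = no-compound wells and -100% = no-enzyme wells.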

UniProt P00811, sequence (P00811 whole entry, looked up): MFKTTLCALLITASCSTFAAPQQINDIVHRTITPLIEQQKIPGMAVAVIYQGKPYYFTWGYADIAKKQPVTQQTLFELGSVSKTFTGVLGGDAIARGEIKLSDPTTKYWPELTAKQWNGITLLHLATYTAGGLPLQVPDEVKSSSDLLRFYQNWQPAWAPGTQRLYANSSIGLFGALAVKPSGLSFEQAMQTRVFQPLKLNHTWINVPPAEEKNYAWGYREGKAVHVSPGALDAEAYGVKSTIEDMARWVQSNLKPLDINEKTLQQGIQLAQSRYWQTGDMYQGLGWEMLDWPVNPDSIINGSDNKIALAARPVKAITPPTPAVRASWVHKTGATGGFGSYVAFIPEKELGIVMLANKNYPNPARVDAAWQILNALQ

| Structure (SMILES) | activity change, negative = inhibition | Potency |
| --- | --- | --- |
| O=C1N2c3ccccc3CCc3cccc(c32)C1(O)C(F)(F)F (stereo not drawn) | inactive: -14.2% |  |
| O=C(NCc1cccc(F)c1)c1ccc2nc(CCc3ccccc3)oc2c1 | inactive: 0.251% |  |
| CC(=O)N1N=C(c2ccccc2)CC1c1cccs1 (stereo not drawn) | inactive: -1.49% |  |
| COC(=O)CN1C(=O)C(O)(CC(=O)c2ccc(Cl)cc2)c2ccccc21 (stereo not drawn) |  | inconclusive [inhibitor, full curve] |
| N#Cc1c2c(c(NCCOCCO)n3c1nc1ccccc13)CCCC2 | inactive: -6.58% |  |
| COc1ccc(-c2nnc(SCC(=O)Oc3cc(C)ccc3C)o2)cc1 | inactive: -1.45% |  |
| O=C(O)CC12CC3CC(C1)CC(n1ncc(NCc4ccc5c(c4)OCO5)c(Cl)c1=O)(C3)C2 |  | inconclusive [inhibitor, single point] |
| CCCCCC(=O)NNC1CC(=O)N(c2cccc(OCC)c2)C1=O (stereo not drawn) | inactive: -1.28% |  |
| COc1ccc2c(c1)CC(NC(=O)Nc1ccc(Br)c(C)c1)CO2 (stereo not drawn) | inactive: 25.4% |  |
| CCOC(=O)CNC(=O)c1sc(NC(=O)c2ccccc2F)nc1C | inactive: -9.96% |  |
| O=C(CC1OC(=O)c2ccccc21)Nc1cc(S(=O)(=O)N2CCOCC2)ccc1OCC(F)(F)F (stereo not drawn) |  | inconclusive [inhibitor, partial curve, poor fit] |
| CC(C)NCc1cc(Br)ccc1OCc1ccccc1 |  | inconclusive [inhibitor, full curve, poor fit] |
| CCOC(=O)C1CCN(C(=O)c2ccc(OCC(=O)N3CCOCC3)c(OC)c2)CC1 |  | inconclusive [inhibitor, single point] |
| CC(=O)OCCCNc1cc(Sc2nc3ccccc3s2)c2nonc2c1[N+](=O)[O-] | inactive: -12.7% |  |
| Cc1c(N/C=C(\Cl)C(=O)C(F)(F)F)c(=O)n(-c2ccccc2)n1C | inactive: -9.29% |  |
| Cc1cc(OCC(=O)Nc2ccc3oc(=O)ccc3c2)ccc1Cl | inactive: -10.7% |  |
| COC(=O)c1ccc2nc(NC(=O)C3CCCCC3)sc2c1 | inactive: -2.66% |  |
| COc1ccc(CNC(=O)COC(=O)CNC(=O)c2sc3ccccc3c2Cl)cc1OC | inactive: 1.94% |  |
| COc1cc(C(=O)Nc2c(C(=O)Nc3ccccc3F)oc3ccccc23)cc(OC)c1OC | inactive: -9.45% |  |
| O=[N+]([O-])c1ccc2c(c1)[nH]c(=S)n2-c1ccccc1 |  | inconclusive [inhibitor, full curve, poor fit] |
| Cc1cc(C(=O)Nc2ccc(F)cc2)c2ccccc2n1 |  | inconclusive [inhibitor, partial curve] |
| CCOC(=O)c1csc(Nc2nc3ccc(F)cc3s2)n1 |  | inconclusive [inhibitor, full curve, poor fit] |
| [S-]C(=Nc1ccc(Cl)cc1)N[n+]1ccccc1 | inactive: -6.18% |  |
| O=C(NCCN1CCOCC1)C(=O)NCC1CCCO1 (stereo not drawn) | inactive: -7.36% |  |

| Structure (SMILES) | activity change, negative = inhibition | Potency |
| --- | --- | --- |
| COc1ccc(Cn2c(=O)c3ccccc3n3c(-c4ccc(C)cc4)nnc23)cc1 | inactive: 22% |  |
| CC(C)CN1CCC(=O)N([C@H](CN=[N+]=[N-])Cc2ccccc2)CC1 |  | inconclusive [inhibitor, partial curve, poor fit] |
| COc1ccc(OC)c(/C=C2\S/C(=N/NC(=O)c3ccc4ccccc4c3)NC2=O)c1 |  | inconclusive [inhibitor, single point] |
| CCn1c(=O)cc(OCC(=O)N2CCc3ccccc32)c2ccccc21 |  | inconclusive [inhibitor, full curve, poor fit] |
| Cc1cc(N(C)C)c(C#N)c(N2CCCCC2)n1 |  | inconclusive [inhibitor, full curve] |
| COc1ccc(OC)c(N/C(C)=C/C(=O)c2ccncc2)c1 | inactive: -1.91% |  |
| Cc1ccc(C(=O)C2CCN(CC(=O)Nc3ccc(N(C)C)cc3)CC2)cc1 |  | inconclusive [inhibitor, full curve, poor fit] |
| COC(=O)[C@@H]1C[C@@]2(O)[C@@H](O)[C@@H](O)[C@@H](O)C[C@H]2N1Cc1ccc(Cl)cc1 | inactive: -6.47% |  |
| COc1cccc(CN2CCN(C(=O)c3cc(-c4cccnc4)nc4ccc(C)cc34)CC2)c1 | inactive: 1.13% |  |
| Cc1ccc(COC(=O)c2[nH]c3c(c2C)C(=O)CC(c2ccc(Cl)cc2)C3)cc1 (stereo not drawn) | inactive: 7.51% |  |
| CCCCn1c(-c2ccc(F)c(F)c2)nc2cc3[nH]c(=O)c(C(C)C)nc3cc21 |  | inconclusive [inhibitor, partial curve] |
| CN(C)S(=O)(=O)c1ccc(N2CCCC2)c(C(=O)NCCc2ccc(F)cc2)c1 |  | inconclusive [inhibitor, single point] |
| CCN(CC)CCCn1c2c(c(SCC(=O)Nc3ccc(OC(F)(F)F)cc3)nc1=O)CCC2 |  | inconclusive [inhibitor, full curve, poor fit] |
| O=C(Nc1cccc(-c2ccc(N3CCOCC3)nn2)c1)c1ccccc1 |  | inconclusive [inhibitor, full curve, poor fit] |
| Cc1ccc(C)c(-c2nnc(NC(=O)c3ccco3)o2)c1 |  | inconclusive [inhibitor, full curve] |
| Cc1ccc(C(C)n2cc(C(=O)NCc3ccncc3)nn2)cc1 (stereo not drawn) |  | inconclusive [inhibitor, partial curve] |
| COc1ccc(C2=CC(c3ccc(OC)c(OC)c3)c3c(c4ccccc4oc3=O)O2)cc1OC (stereo not drawn) | inactive: 0.113% |  |
| CCCc1nnc(NC(=O)CN2C(=O)C3C4C=CC(C4)C3C2=O)s1 (stereo not drawn) | inactive: 4.43% |  |
| Cn1c(=O)c2c(SCC(=O)Nc3ccc4c(c3)OCCO4)nc(CC(C)(C)C)nc2n(C)c1=O |  | inconclusive [inhibitor, full curve] |
| COC(=O)c1cc2sc(Cl)cc2n1CC(=O)N1CCCc2ccccc21 |  | inconclusive [inhibitor, full curve] |
| O=C(Cn1c(=O)n(Cc2ccc3c(c2)OCO3)c(=O)c2ccccc21)N1CCCc2ccccc21 | inactive: -0.798% |  |
| NC(=O)C1CCN(C(=O)COc2ccc3ccc(=O)oc3c2)CC1 |  | inconclusive [inhibitor, full curve, poor fit] |
| Cn1c(N2CCOCC2)nc2c1c(=O)n(Cc1ccc(Cl)c(Cl)c1)c(=O)n2C | inactive: 2.37% |  |
| O=C(CSc1nnc(-c2cccs2)o1)c1cccs1 | inactive: 2.04% |  |
